Laboratory results: PubChem BioAssay AID1508642 (National Center for Advancing Translational Sciences (NCATS), 2021)
In all, about 43,000 compounds went through this assay and about 200 (0.47%) were called active. About 12% were inconclusive and are not listed. Calls come from the whole dose curve; as a rule, active = well fitted cell-killing curve with a large enough effect; inconclusive = small, poorly fitted or top-dose-only effect, or effect the other way; inactive = flat fitted curve, though single readings scatter. The list shows a part of the results.

assay: Cell viability qHTS assay in S16 Pmp22-F2sN cells; conditions: S16 Pmp22-F2sN Schwann cells (luciferase reporters placed in the Pmp22 gene) viability, CellTiter-Glo, 24 h; series mostly up to 57.5 µM; activity change, negative = cytotoxicity: at the top concentration; note: nearly all actives have a fitted effect of over 65% in size
In short: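 Rat S16 Schwann reporter line, 24 h treatment with library compounds delivered at 23 nL per well. Cell viability by CellTiter-Glo luminescence.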
% is set by controls: 0 for no effect and ±100 for the full control effect.

Row | Structure (SMILES) | activity change, negative = cytotoxicity
1 | CCOC(=O)c1[nH]c(C)c(CCC(=O)Nc2c(C)cc(C)cc2C)c1C | inactive: -9.37%
2 | Cc1cccc(N2CCN(C(=O)C3CCC(CNS(=O)(=O)c4ccc(Br)s4)CC3)CC2)c1C (stereo not given) | inactive: 2.45%
3 | CCc1nn(CC(=O)N2CCN(c3cccc(C)c3C)CC2)c(=O)c2cc3occc3n12 | inactive: -8.82%
4 | COc1ccc(N2C(=O)CSC23C(=O)N(CC(=O)NC2CCCCC2)c2ccccc23)cc1 (stereo not given) | inactive: -1.96%
5 | CC(=O)c1ccc(N2CCN(S(=O)(=O)c3c(C)nc4sc(C)cn4c3=O)CC2)cc1 | inactive: 5.76%
6 | Cc1nc2ccccc2n1CCc1nc2c3ccccc3nc(SCc3cccc(F)c3)n2n1 | inactive: 10.7%
7 | CC1=C(C(=O)Nc2ccccc2)C(c2ccccc2C)n2ncc(C(=O)Nc3ccccc3)c2N1 (stereo not given) | inactive: -20.3%
8 | CCOc1ccccc1NC(=O)Cn1c(=O)n(CCC(C)C)c(=O)c2cccnc21 | inactive: 11.8%
9 | O=C(COC(=O)c1cc(-c2cccs2)nc2ccccc12)c1ccc(Br)cc1 | inactive: 23%
10 | COc1ccc(CCNC(=O)CCn2c(=O)c3ccccc3n(CC(=O)Nc3ccccc3F)c2=O)cc1OC | inactive: 3.02%
11 | Cn1c(=O)c2sccc2n2c(CCC(=O)NCc3ccc(F)cc3)nnc12 | inactive: 2.26%
12 | Cc1ccc2c(=O)c(C(=O)c3ccccc3)cn(CC(=O)Nc3ccc4c(c3)OCCO4)c2n1 | inactive: 8.92%
13 | Cc1c(C(=O)N2CCC(c3nc4ccccc4s3)CC2)oc2cc(Br)ccc12 | inactive: 1.41%
14 | COc1cc(C2c3c(oc4cc(C)c(C)cc4c3=O)C(=O)N2CCCN2CCOCC2)ccc1O (stereo not given) | inactive: 13.3%
15 | Cc1ccc2c(c1)c1c(c(=O)n(-c3cccc(Cl)c3)c(=O)n1CC(=O)N1CCCC1)n2C | inactive: 8.2%
16 | CCOc1ccc(-n2c(SCc3nc(-c4ccc(OC)cc4)no3)nnc2-c2ccncc2)cc1 | inactive: -10.4%
17 | COc1ccc(Br)cc1CNC(=O)c1cc(=O)[nH]c2ccc(S(=O)(=O)N3CCCC3)cc12 | inactive: 17.6%
18 | CCOc1cccc2cc(-c3nc4sc5c(c4c(=O)[nH]3)CCC(C(C)(C)C)C5)c(=O)oc12 (stereo not given) | inactive: 5%
19 | COc1ccc(NCc2cc3cc4c(cc3n(CC(=O)Nc3cc(C)ccc3C)c2=O)OCCO4)cc1 | inactive: -12%
20 | CC(C)c1ccc(NS(=O)(=O)c2ccc3nc(-c4ccccc4)[nH]c3c2)cc1 | inactive: -25.9%

Row | Structure (SMILES) | activity change, negative = cytotoxicity
21 | Cc1nn2c(=O)cc(COC(=O)c3ccccc3NC(=O)C(C)Oc3ccccc3)nc2s1 (stereo not given) | inactive: 27.6%
22 | CCOc1ccc(CN2CCc3nc(Nc4ccc5c(c4)OCCO5)ncc3C2)cc1 | inactive: -1.2%
23 | COc1ccc(CCNC(=O)c2ccc(Cn3c(=O)c4ccccc4n(Cc4cccc(Cl)c4)c3=O)cc2)cc1OC | inactive: 6.69%
24 | CCOc1ccccc1NC(=O)C(CC)Sc1nc2ccncc2[nH]1 (stereo not given) | inactive: 0.443%
25 | COc1ccc(NC(=O)c2ccc3c(c2)sc2nc(-c4ccc(OC)cc4)cn23)cc1 | inactive: 2.76%
26 | Cc1ccc(NC(=O)Cn2c(=O)n(Cc3ccco3)c(=O)c3ccccc32)c(C)c1 | inactive: 18%
27 | CCN(CC)c1cc2c(cc1F)c(=O)c(S(=O)(=O)c1cccc(C)c1)cn2C | inactive: 0.111%
28 | CCOc1ccc(C2CC(=O)N(c3cccc(F)c3)C3=C2C(=O)OC3)cc1 (stereo not given) | inactive: 4.17%
29 | Cc1ccc(-n2nc3c(=O)n(CCCC(=O)NCCc4ccccc4Cl)nc(C)c3c2C)cc1 | inactive: -2.27%
30 | Cc1ccc(-n2c(=O)c3ccc(C(=O)NCc4ccco4)cc3n(Cc3ccccc3C#N)c2=O)cc1 | inactive: -1.97%
31 | Cn1c(=O)c2cc(C(=O)NCCCN3CCN(c4ccccc4F)CC3)sc2c2ccccc21 | inactive: -14.4%
32 | CCOC(=O)c1ccc(NC(=O)c2cc3sccc3n2Cc2ccc(Cl)cc2)cc1 | inactive: 1.23%
33 | Cc1cccc(NC(=O)CSc2nc(-c3ccco3)cc(C(F)(F)F)n2)c1C | inactive: 2.21%
34 | Cc1cccc(N2CCN(S(=O)(=O)c3csc(C(N)=O)c3)CC2)c1C | inactive: -15.2%
35 | Cc1ccc(N(Cc2cccs2)C(=O)c2ccccc2Cl)cc1 | inactive: 11%
36 | COc1ccc(NC(=O)C(C)N(c2ccccc2)S(C)(=O)=O)cc1 (stereo not given) | inactive: -0.457%
37 | COc1ccc(C)cc1NC(=O)Cn1c(=O)n(Cc2nc(C)no2)c(=O)c2ccccc21 | inactive: -18.2%
38 | O=C(Nc1nnc2n1CCS2)c1ccc(F)cc1F | inactive: 3.51%
39 | O=C(c1ccccc1Cl)N1CCCCC1CCN1CCCCC1 (stereo not given) | inactive: -1.13%
40 | CCOc1ccc(NC(=O)C(=O)NCc2ccco2)cc1 | inactive: -0.0401%

Row | Structure (SMILES) | activity change, negative = cytotoxicity
41 | COc1cccc(C(=O)NCC(c2ccc3c(c2)OCO3)N2CCOCC2)c1 (stereo not given) | inactive: -9.05%
42 | COc1ccc(C2=C(C)C(N3CCC(C(=O)Nc4ccc(F)cc4C)CC3)=NS2(=O)=O)cc1 | inactive: -3.73%
43 | O=C(Nc1ccc(Cl)c(C(F)(F)F)c1)C(Cc1ccccc1)NS(=O)(=O)c1ccc(Br)s1 (stereo not given) | inactive: 1.78%
44 | CC1(C)CC(=O)c2cc(C(=O)Nc3ccccc3Cl)c(=O)n(-c3ccc(Cl)cc3)c2C1 | inactive: -0.517%
45 | COc1ccc2cc3cc(C(=O)NCc4ccccc4OC)oc3nc2c1 | inactive: 0.415%
46 | O=C(NCc1ccccc1)C(=O)NCC(c1cccs1)S(=O)(=O)c1ccccc1 (stereo not given) | inactive: -11.9%
47 | CCSc1nnc(NC(=O)c2cc(=O)c3cc(C)c(C)cc3o2)s1 | inactive: -3.89%
48 | O=C(Nc1cccc(C(F)(F)F)c1)c1cc(-c2ccc3c(c2)OCCO3)on1 | inactive: 1.61%
49 | CCc1cnc2c(c1SCC(=O)c1ccc(Cl)cc1)c(=O)n(C)c(=O)n2C | inactive: -5.64%
50 | COc1ccc(Cn2c(=O)c3cccnc3n(CC(=O)Nc3c(C)cc(C)cc3C)c2=O)cc1 | inactive: 5.66%
51 | CCOC(=O)c1c(-c2ccc(OC)cc2)oc2ccc(OCc3ccc(Br)cc3)cc12 | inactive: 0.247%
52 | Cc1cccc(NC(=O)CSc2nc3ccccc3nc2N2CCOCC2)c1C | inactive: -2.87%
53 | CCOc1ccc(CNS(=O)(=O)c2cc3c(cc2C)NC(=O)CO3)cc1 | inactive: 2.05%
54 | CC(=O)c1ccc(N2CCN(C(=O)CCCCn3c(=O)[nH]c4ccsc4c3=O)CC2)cc1 | inactive: -4.41%
55 | O=C(Nc1nnc2n1CCS2)c1ccccc1C(F)(F)F | inactive: 0.921%
56 | CC(C)CCNC(=O)CCC(=O)NNc1nc2ccccc2c2nc(-c3ccccc3)nn12 | inactive: 1.01%
57 | COc1cc(OC)cc(C(=O)N2CC(=O)Nc3ccc(Cl)cc3C2c2ccccc2)c1 (stereo not given) | inactive: -11.3%
58 | O=C(NCCc1ccc(F)cc1)C(=O)NCC(c1ccco1)S(=O)(=O)c1cccs1 (stereo not given) | inactive: 3.02%
59 | Cc1ccc(N(CC(=O)Nc2ccc(Br)cc2)S(=O)(=O)c2cccs2)cc1 | inactive: -1.38%
60 | COc1ccc(S(=O)(=O)n2nc(C)c(S(=O)(=O)N3CCC(C)CC3)c2C)cc1OC | inactive: 3.63%
